# Laboratory results from PubChem BioAssay AID686978 (National Center for Advancing Translational Sciences (NCATS), 2013).
# Screen size: about 420,000 compounds; about 64,000 (15%) were called active. The shares of active, inactive and inconclusive entries below differ from those in the screen. Calls follow the shape of the dose curve; as a rule, active = well fitted inhibition curve with a large enough effect; inconclusive = small, poorly fitted or top-dose-only effect; inactive = flat fitted curve, though single readings scatter. Potencies of inconclusive entries are left out as doubtful fits.
# Experiment: qHTS for Inhibitors of human tyrosyl-DNA phosphodiesterase 1 (TDP1): qHTS in cells in absence of CPT; also: nearly all actives have a fitted effect of over 55% in size
# Settings: DT40 Tdp1-/- hTDP1 cells, no CPT, ATP luminescence, 48 h; activity change, negative = growth inhibition: at 46.2 µM (top of the series)
# How it was run: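 Chicken DT40 Tdp1-/- cells complemented with human TDP1, screened without camptothecin (DMSO vehicle only), 400 cells/well. Compounds pin-transferred, cells incubated at 37 °C for at least 48 hr. Growth read as ATP-dependent luminescence (CellTiter-Glo, 30 min at RT).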
# % is scaled to controls: 0 for no effect and ±100 for the full control effect; potency is read from the fitted curve at half-maximal effect; tags tell the direction and shape of the fitted curve.
SMILES,Potency,"activity change, negative = growth inhibition"
COc1ccc(-n2nc(C(=O)NCC(=O)NC3CCCCC3)c3ccccc3c2=O)cc1,"inconclusive [inhibitor, partial curve]",
CCc1ccc(C(=O)Nc2cc3c(cc2Cl)OCCCO3)cc1,,inconclusive: -30.9% [inhibitor]
COc1ccc(OC)c(S(=O)(=O)NCc2ccc3c(c2)CCN3C(=O)c2cccc(C)c2)c1,active: 2.59 µM,
C=CCNC(=O)c1onc(CSc2ccc(Cl)cc2)c1C(=O)O,inactive,
C=CCN1C(=O)/C(=C\c2cc(Br)c(OCc3ccccn3)c(OC)c2)SC1=S,"inconclusive [inhibitor, partial curve]",
Oc1ccc(Br)cc1C=Nc1ccc2[nH]ncc2c1,"inconclusive [inhibitor, partial curve]",
Cc1ccc(/C=N/NC(=O)CN2CCN(Cc3ccccc3)CC2)o1,inactive,
CCN(c1ccccc1)S(=O)(=O)c1ccc(C(=O)Nc2ccncc2)cc1,active: 20.6 µM,
Cc1cccc2nc3c(nc12)CCCC3,inactive,
COc1ccc(/C=C2/SC(=S)NC2=O)cc1OCc1ccccc1,inactive,
CCOC(=O)c1c(NC(=O)C(C)Sc2cn(CCNC(=O)c3ccc(OC)cc3)c3ccccc23)sc2c1CCC2 (configuration not stated),"inconclusive [inhibitor, single point]",
CCCOCc1cc(CN2CCN(c3ccccc3OC)CC2)c(O)c2ncccc12,active: 2.91 µM,
Cc1ccc(NC(=S)N(C)Cc2cn(C)c3ccccc23)cc1,"inconclusive [inhibitor, single point]",
NC(=O)c1cc[n+](CC(=O)NC(=O)Nc2ccccc2)cc1,inactive,
O=C(NCc1ccc(Cl)cc1)c1cnc(N2CCOCC2)c2ccccc12,"inconclusive [inhibitor, single point]",
Cc1ccc(CSCCNC(=O)CN(c2cccc(C)c2C)S(=O)(=O)c2ccccc2)cc1,"inconclusive [inhibitor, single point]",
CCN(CC(=O)NCCC1=CCCCC1)S(=O)(=O)c1ccccc1,,inconclusive: -31.6% [inhibitor]
COc1ccc(Cc2c(-c3ccc(Cl)cc3)nc3c(C)cc(Br)cn23)c(C)c1,active: 20.6 µM,
COc1ccc(OC)c(C(=O)COC(=O)COc2ccccc2)c1,active: 5.8 µM,
Cc1cc(C(=O)NCCCN(C)C)c2ccccc2n1,inactive,
Cc1ccc2c(c1)cc(CN(Cc1ccc3c(c1)OCO3)S(=O)(=O)c1ccccc1)c1nnnn12,active: 20.6 µM,
Cc1nc(SC(C)C(=O)Nc2c(C)n(C)n(-c3ccccc3)c2=O)nc(C)c1C (configuration not stated),inactive,
O=C(NC1CCCCC1)C(=O)c1c[nH]c2ccccc12,"inconclusive [inhibitor, single point]",
O=C(c1ccccc1)c1ccccc1NC(=O)C1CCCN1Cc1ccccc1 (configuration not stated),"inconclusive [inhibitor, single point]",

SMILES,Potency,"activity change, negative = growth inhibition"
CN(C)c1ccc(CNC2C3CC4CC(C3)CC2C4)cc1 (configuration not stated),"inconclusive [inhibitor, partial curve]",
CCOC(=O)C1(Cc2ccc(OC)cc2)CCN(C(=O)c2cncs2)CC1,"inconclusive [inhibitor, single point]",
COc1ccc(NCc2nnc(SCCN3CCCCC3)n2-c2ccc(C)cc2)cc1,inactive,
COc1ccc(CNC(=O)c2ccc3c(c2)CCN3S(=O)(=O)c2ccccc2)cc1,active: 18.4 µM,
CN1CCN(C(=O)C2=C[C@@H](C3CCCCC3)C[C@@H](OCCCCO)O2)CC1,inactive,
CC1CCN(C(=S)c2cn(Cc3cccc(F)c3)c3ccccc23)CC1,"inconclusive [inhibitor, partial curve]",
Cc1cc2n(n1)C(c1ccc3c(c1)OCO3)Nc1c(C)cccc1-2 (configuration not stated),inactive,
Cc1nc(Nc2ccc(F)cc2)nc(Nc2ccc(F)cc2)c1[N+](=O)[O-],"inconclusive [inhibitor, partial curve]",
O=C(Nc1cccs1)Nc1cccnc1Cl,"inconclusive [inhibitor, partial curve, poor fit]",
O=C(/C=C/c1ccc(Cl)cc1)N1CCN(c2ccccn2)CC1,"inconclusive [inhibitor, single point]",
Cc1ccccc1CNC(=O)c1ccc(Cn2c(SCc3ccccc3)nc3cccnc32)cc1,"inconclusive [inhibitor, single point]",
CC(C)CC(N)c1csc(NC(=O)NCCc2ccccc2)n1 (configuration not stated),"inconclusive [inhibitor, single point]",
CCn1c(=O)cc(SCC(=O)NCCCN2CCN(c3ccccc3F)CC2)c2ccccc21,"inconclusive [inhibitor, single point]",
Cc1ccc(S(=O)(=O)N(CC(=O)NCCC2=CCCCC2)Cc2ccccc2F)cc1,"inconclusive [inhibitor, single point]",
CC(C)c1ccc(C2C3=C(CC(C)(C)CC3=O)NC3=C2C(=O)c2ccccc23)cc1 (configuration not stated),"inconclusive [inhibitor, single point]",
Cc1ccc(S(=O)(=O)NCC(c2ccc3c(c2)OCO3)N2CCOCC2)cc1 (configuration not stated),"inconclusive [inhibitor, single point]",
O=C(N=C1SCC(=O)N1c1ccccc1Cl)c1ccccc1,inactive,
CC(=O)c1cccc(NC(=O)Nc2cc3c(cc2N2CCCC2)n(C)c(=O)n3C)c1,"inconclusive [inhibitor, single point]",
Cc1ccc(Cl)cc1NC(=O)c1ccc2nc(CCc3ccccc3)oc2c1,"inconclusive [inhibitor, partial curve]",
O=C(Cc1ccccc1)NCc1nc2ccccc2[nH]1,inactive,
COc1ccc(CNc2nc(-c3ccco3)nn2C(=O)c2ccccc2C)cc1,inactive,
Nc1ncnc2c1ncn2[C@@H]1O[C@H](CNS(=O)(=O)c2cc3ccccc3s2)[C@@H](O)[C@H]1O,"inconclusive [inhibitor, single point]",
NNc1nc(-c2ccccc2Cl)c2cc(Br)ccc2n1,active: 5.17 µM,
Cc1ccc(-c2nc(CNC(=O)NC3CCCCC3)c(C)o2)cc1,inactive,

SMILES,Potency,"activity change, negative = growth inhibition"
Cc1sc2ncn(CC(=O)NCc3ccccc3)c(=O)c2c1C,"inconclusive [inhibitor, single point]",
CC(C)OC(=O)c1nnc(-c2ccccc2)nc1OC(C)C,"inconclusive [inhibitor, single point]",
COc1cc(NC(=O)COC(=O)CCc2nc3ccccc3c(=O)[nH]2)cc(OC)c1,,inconclusive: -30.4% [inhibitor]
Cc1ccc([N+](=O)[O-])cc1S(=O)(=O)NCC1COc2ccccc2O1 (configuration not stated),inactive,
COc1ccc(C2(c3ccc(OC)cc3)NC(=O)N(CC(=O)Nc3ccc(OC)c(OC)c3)C2=O)cc1,"inconclusive [inhibitor, single point]",
COc1ccc(NC(=O)c2cc(-c3cc(F)ccc3OCC3CCCO3)n[nH]2)c(C)c1 (configuration not stated),"inconclusive [inhibitor, single point]",
CCOc1ccc(Nc2oc(-c3ccc(COc4ccc(C)cc4)o3)nc2C#N)cc1,"inconclusive [inhibitor, single point]",
CCn1c(=O)c(C(=O)NCCc2ccccc2)c(O)c2ccccc21,"inconclusive [inhibitor, single point]",
O=C(Cc1c[nH]c2ccccc12)N/N=C/c1ccccc1O,"inconclusive [inhibitor, single point]",
Cc1cccc(N2C(=O)c3cccc4cccc(c34)C2=O)c1,,inconclusive: -32.5% [inhibitor]
CCn1cc(C(=O)NCc2ccccc2Cl)c(=O)c2cc(S(=O)(=O)N3CCCCCC3)ccc21,active: 20.6 µM,
CC(C)CCNC(=O)CCCCn1c(=O)[nH]c2ccsc2c1=O,inactive,
O=C(O)c1ccc2c(c1)CCC2,inactive,
O=C(NCc1ccccn1)c1ccccc1OCc1ccc(Cl)cc1Cl,"inconclusive [inhibitor, single point]",
CCN(C(=O)COC(=O)c1c(-c2ccccc2)noc1C)c1c(N)n(Cc2ccccc2)c(=O)[nH]c1=O,inactive,
COc1ccc(S(=O)(=O)N(C)C[C@H]2Oc3ccc(NS(=O)(=O)c4cccs4)cc3CC(=O)N([C@H](C)CO)C[C@H]2C)cc1,"inconclusive [inhibitor, single point]",
CC(C)CNC(=O)C1CCN(S(=O)(=O)c2ccc3c(c2)OCCO3)CC1,,inconclusive: -36.7% [inhibitor]
CCOC(=O)/C(=N\Nc1ccccc1[N+](=O)[O-])c1csc(N)n1,"inconclusive [inhibitor, partial curve, poor fit]",
COc1cc(NC(=O)c2ccccc2)c(OC)cc1NC(=O)Cc1ccccc1,"inconclusive [inhibitor, single point]",
O=C(CNC(=O)c1ccc(Br)o1)Nc1ccc(F)c(S(=O)(=O)N2CCOCC2)c1,inactive,
CCc1ccc(C(CC(=O)O)N2Cc3ccccc3C2=O)cc1 (configuration not stated),inactive,
COc1ccc(C23CC4CC(CC(C4)C2)C3)cc1C(=O)NCCN(C)C,active: 8.2 µM,
CSCC[C@H](NC(=O)[C@H](Cc1c[nH]c2ccccc12)NC(=O)CCNC(=O)OC(C)(C)C)C(=O)N[C@@H](CC(=O)O)C(=O)N[C@@H](Cc1ccccc1)C(N)=O,inactive,
O=S(=O)(c1ccccc1)c1nc(-c2ccco2)oc1SCc1ccc(F)cc1,"inconclusive [inhibitor, single point]",
